These results are taken from PMC8865542 (2021).

Assay [1] deals with T1, HBoV1 NS[…] with Flag and His tags (human bocavirus 1 (HBoV1)). As to the kind of experiment: BLI. A general note: In BLI a coated tip is dipped into the sample, and binding shifts an interference pattern.
The target of assay [2] is T1, HBoV1 NS[…] with Flag and His tags. As to the kind of experiment: BLI. This is another data set of the same source.

B1: Ku70 domain C (C-terminal domain) with Strep-tag II (domain or fragment)
chain: not shown
On to B1, for which the koff (as a rule, the rate constant with which the complex falls apart) in assay [1] was determined as 0.000667 s⁻¹.

B2: Ku70 domain B (β-barrel domain) with Strep-tag II (domain or fragment)
chain: not shown
For the molecule B2, the Kd (as a rule, the concentration at which binding is half-saturated) in assay [2] amounted to 230 nM. In assay [1], this molecule gave a koff of 0.000808 s⁻¹.
